Test results as given in PubChem BioAssay AID686979 (National Center for Advancing Translational Sciences (NCATS), 2013).
In all, about 420,000 compounds went through this assay and about 50,000 (12%) were called active. Inconclusive means that the source gave no clear call. Such entries were picked first, then a sample of the others. Calls come from the whole dose curve; as a rule, active = well fitted inhibition curve with a large enough effect; inconclusive = small, poorly fitted or top-dose-only effect; inactive = flat fitted curve, though single readings scatter. Potencies of inconclusive entries are left out as doubtful fits.

test: qHTS for Inhibitors of human tyrosyl-DNA phosphodiesterase 1 (TDP1): qHTS in cells in presence of CPT; conditions: chicken DT40 Tdp1-/-;hTDP1 cells + 20 nM CPT, ATP luminescence, 48 h; activity change, negative = growth inhibition: at 46.2 µM (top of the series) unless noted; note: nearly all actives have a fitted effect of over 55% in size
In short: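 Chicken DT40 Tdp1-/- cells stably complemented with human TDP1 were seeded at 400 cells/well in medium containing 20 nM camptothecin, exposed to pin-transferred compounds, and grown at 37 °C for at least 48 hr. Viability was read as ATP luminescence.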
% is set by controls: 0 for no effect and ±100 for the full control effect; potency is the fitted concentration of half-maximal effect; tags give direction and shape of the fitted curve.

SMILES | Potency | activity change, negative = growth inhibition
COc1cccc(CNC(=O)c2cccc(NC(=O)C3=C(C)OCCS3)c2)c1 | inconclusive [inhibitor, single point] | –
COC(=O)N/N=C/c1cc(Br)ccc1O | – | inactive: -0.594%
O=c1cc(CN2CCN(c3ccccc3)CC2)c2cc(O)c(-c3ccccc3)cc2o1 | active: 5.8 µM | –
O=c1c2ccccc2c(-c2ccccc2)nn1-c1ccccc1 | inconclusive [inhibitor, partial curve] | –
CC(=O)c1sc2c(c1OC(=O)c1ccc(Cl)cc1Cl)c(=O)n(-c1ccccc1)c(=S)n2-c1ccccc1 | inconclusive [inhibitor, single point] | –
COc1ccc(/C=C/C(=O)N2CCN(c3ccccn3)CC2)c2ccccc12 | inconclusive [inhibitor, single point] | –
COc1cccc(CNC(=O)COc2cc3c(c4oc(=O)cc(C)c24)CCC(C)(C)O3)c1 | active: 20.6 µM | –
COc1ccc(C(C)(O)c2nc(-c3ccc4ccccc4c3)cs2)cc1 (stereo not drawn) | inconclusive [inhibitor, single point] | –
CCCCCCCCN1C(=O)[C@H](CC(=O)NCCCOC)C[C@@]2(C(=O)OC)CCCCC=C12 | inconclusive [inhibitor, single point] | –
Cc1nc2c(cnn2-c2ccccc2Cl)c(=O)n1-c1ccc(N2CCC(C)CC2)cc1 | active: 16.4 µM | –
CCCNC(=O)N1C[C@H](O)COC[C@@H]2O[C@@H](CC(=O)NCCCN3CCOCC3)CC[C@H]21 | – | inactive: -0.203%
O=C(Nc1cccc([N+](=O)[O-])c1)c1cc(S(=O)(=O)N2CCOCC2)cs1 | inconclusive [inhibitor, single point] | –
COc1cc(-c2cc3n(C)c(C)c(CCC(=O)O)c(=O)n3n2)cc(OC)c1OC | – | inactive: 12%
CS(=O)(=O)Nc1cccc(-c2cc(NC=O)c3ncc(-c4ccc(F)c(Cl)c4)n3c2)c1 | active: 9.2 µM | –
Cn1c(CC(=O)Nc2ccccc2Cl)nnc1SCC(=O)Nc1nncs1 | – | inactive: -25.7%
COc1ccc2c(CN3CCN(S(=O)(=O)c4cccs4)CC3)cc(=O)oc2c1 | – | inactive: -24.3%
O=C(/C=C/NNC(=O)c1ccccc1)c1ccc([N+](=O)[O-])cc1 | active: 6.51 µM | –
COc1ccc2sc(-c3ccc(N(C)C)cc3)c(-c3cnc(OC)nc3)c2c1 | inconclusive [inhibitor, single point] | –
Cc1cc(C)c(S(=O)(=O)NCCn2ccc3ccccc32)c(C)c1 | inconclusive [inhibitor, single point] | –
COc1ccc(NC(=O)CSc2nnc3n2CCCCC3)cc1S(=O)(=O)N1CCOCC1 | – | inactive: -4.27%
O=S(=O)(Nc1cccc(-n2cnnn2)c1)c1cnc(Cl)c(Cl)c1 | – | inactive: -19.4%
CCN(CC)C(=O)C1CCCN(Cc2nc(-c3cnccn3)no2)C1 (stereo not drawn) | – | inactive: -16.3%
CCOc1ccc(NC(=O)C2CCN(C(=O)N3CC(C)Oc4ccc(Cl)cc43)CC2)cc1 (stereo not drawn) | active: 23.1 µM | –
NS(=O)(=O)c1cc(C(=O)NC2CCSc3ccccc32)ccc1Cl (stereo not drawn) | – | inactive: 9.58%
CCc1ccccc1NC(=O)CSc1nc2n[nH]c(C)c2c(=N)n1-c1ccc(OC)cc1 | active: 9.2 µM | –

SMILES | Potency | activity change, negative = growth inhibition
CC(C)C(=O)Nc1ccc(COc2ccccc2CN(Cc2ccccc2)C(=O)OC(C)(C)C)cc1 | active: 14.6 µM | –
S=C1SCN(CCc2ccccc2)CN1CCc1ccccc1 | inconclusive [inhibitor, single point] | –
O=C(c1cnn2c(C(F)(F)F)cc(-c3ccc4c(c3)OCO4)nc12)N1CCCCC1 | inconclusive [inhibitor, single point] | –
Cc1ccc(CNC(=O)CCC(=O)N2CC3CCCN3c3ccccc32)cc1 (stereo not drawn) | active: 5.17 µM | –
Cc1ncc(CN2CCCC(CCC(=O)NCc3ccccc3F)C2)s1 (stereo not drawn) | inconclusive [inhibitor, full curve] | –
CCOc1cc(-c2c(C#N)c(N)nc3c2CCCC3)ccc1O | inconclusive [inhibitor, single point] | –
CC(C)CC(=O)Nc1nnc(S(=O)(=O)N(CC(C)C)c2ccccc2)s1 | – | inconclusive: -28.5% [inhibitor]
CC(C)CN(C(=O)CN1CCCCCC1)c1c(N)n(CC(C)C)c(=O)[nH]c1=O | inconclusive [inhibitor, single point] | –
C=CCOC(=O)C1=C(C)NC(=S)C(C#N)(CC=C)C1c1ccccc1Cl (stereo not drawn) | inconclusive [inhibitor, single point] | –
Cc1cccc(C)c1NC(=O)COc1ccc2c(C)c(Cc3ccccc3)c(=O)oc2c1C | active: 16.4 µM | –
COC(=O)[C@]12CCCCC=C1N(Cc1ccccc1)C(=O)[C@H](CC(=O)NCc1cccc3ccccc13)C2 | inconclusive [inhibitor, single point] | –
Cc1c(C(=O)O)nnn1-c1nonc1N | – | inactive: 4.76%
COc1cc(=O)n2c(c1C(=O)N(C)Cc1nonc1C)CCN(Cc1cc(C)ccc1C)CC2 | – | inactive: -1.5% [at 9.04 µM]
CCOc1ccc(N(CC(=O)NCc2ccc(OC)cc2)S(C)(=O)=O)cc1 | inconclusive [inhibitor, single point] | –
Cc1ccc(C2CC2c2n[nH]c(=S)n2-c2cccc(Cl)c2)cc1 (stereo not drawn) | inconclusive [inhibitor, single point] | –
Cc1nc(-c2ccc(S(=O)(=O)NCC3CCN(C(=O)OC(C)(C)C)CC3)s2)cs1 | inconclusive [inhibitor, single point] | –
O=c1c2ccccc2c(-c2ccc(O)cc2)nn1-c1cccc(C(F)(F)F)c1 | active: 14.6 µM | –
O=C(Nc1ccc2oc(-c3cc(Br)ccc3Cl)nc2c1)c1cc2ccccc2o1 | active: 16.4 µM | –
O=S(=O)(NC1CC1)c1ccc2c3c(cccc13)CC2 | inconclusive [inhibitor, single point] | –
O=C(CN1CCCCC1)Nc1ccc(NC(=O)c2ccccc2Cl)cc1Cl | – | inactive: -18%
C/C(=N\NC(=O)c1nnn(-c2nonc2N)c1CN(C)c1ccccc1)c1cccc(O)c1 | inconclusive [inhibitor, single point] | –
COc1ccc(-c2csc3ncnc(Nc4ccc(O)cc4)c23)cc1 | inconclusive [inhibitor, partial curve] | –
c1ccc(OCCN2CCN(C(c3ccccc3)c3ccccc3)CC2)cc1 | inconclusive [inhibitor, single point] | –
O=C(CCCn1c(SCC(=O)NCC2CCCO2)nc2ccccc2c1=O)NCC1CCCO1 (stereo not drawn) | – | inactive: -24.4%
O=C(COC(=O)/C=C/c1ccco1)Nc1ccc(F)cc1Cl | – | inactive: 12.9%

SMILES | Potency | activity change, negative = growth inhibition
COc1ccc(CCNC(=O)CCc2c(C)nc3c(c(C)nn3-c3ccc(C)c(C)c3)c2C)cc1OC | active: 20.6 µM | –
CCNc1ncc2nc(-c3cn(C)c4ccccc34)c(=O)n(CCC#N)c2n1 | – | inactive: -1.71%
CCOCC(=O)Nc1ccc(S(=O)(=O)NCCc2ccccc2)cc1 | inconclusive [inhibitor, partial curve] | –
CCn1nc(NC(=O)Cc2ccc(OC)cc2)c2cc3cc(C)ccc3nc21 | inconclusive [inhibitor, single point] | –
COc1ccccc1CNC(=O)c1cc2cc3ccc(Cl)cc3nc2o1 | – | inactive: 10.7%
c1csc(-c2nc(N3CCOCC3)c3ccccc3n2)c1 | inconclusive [inhibitor, single point] | –
CCOc1ccc(NC(=O)N(Cc2ccc(C)cc2)Cc2ccccn2)cc1 | – | inactive: -5.71%
COc1ccc(-n2c(C)nc3c(cnn3-c3ccc(Cl)cc3)c2=O)cc1 | inconclusive [inhibitor, single point] | –
CCOc1ccccc1NC(=O)Cn1c(=O)n(CCC(=O)NCc2ccc3c(c2)OCO3)c(=O)c2ccccc21 | inconclusive [inhibitor, single point] | –
COc1cc(OC)c(NC(=O)c2csc3c2CCC(C)C3)cc1Cl (stereo not drawn) | inconclusive [inhibitor, single point] | –
CC(NC(=O)COC(=O)c1ccc[nH]c1=O)c1ccccc1 (stereo not drawn) | – | inactive: -6.67%
O=C(COC(=O)Cc1ccc(Br)cc1)NC1CCCC1 | – | inactive: 3.97%
COC(=O)N/N=C/c1cn(CCOc2ccccc2)c2ccccc12 | – | inactive: -0.186%
O=C(Nc1ccc([N+](=O)[O-])cc1)NN1CCCCCC1 | active: 23.1 µM | –
Cc1ccc(NC(=O)C(=O)NCc2ccc(/C=C(/C#N)C(=O)NCc3cccnc3)o2)cc1 | inconclusive [inhibitor, single point] | –
Cc1ccc(NC(=O)CCCn2c(=O)c3cccn3c3ccccc32)c(Cl)c1 | active: 14.6 µM | –
COc1ccc(C2CC(c3ccc(Br)cc3)=NN2C(=O)CSC2=NCCS2)cc1 (stereo not drawn) | active: 16.4 µM | –
NS(=O)(=O)c1ccc(NC(=O)COc2ccc(S(=O)(=O)N3CCCC3)cc2)cc1 | – | inactive: -20.1%
COc1ccc(S(=O)(=O)N2CCCC(C(=O)NCCCn3ccnc3)C2)cc1OC (stereo not drawn) | – | inconclusive: 4.38% [inhibitor]
CCc1ccc(/C=N/n2c(C3CCCCC3)n[nH]c2=S)cc1 | inconclusive [inhibitor, single point] | –
Cc1ccc(NC(=O)C2CC2C)cc1S(=O)(=O)N1CCOCC1 (stereo not drawn) | – | inactive: -6.41%
Cc1ccc(NC(=O)COC(=O)c2cc(Cl)cc(Cl)c2)c(Br)c1 | inconclusive [inhibitor, single point] | –
CC(=O)C1C(=O)C=C(c2ccco2)CC1c1ccccc1 (stereo not drawn) | inconclusive [inhibitor, single point] | –
